The whole screen tested about 76,000 compounds, of which about 1,900 (2.5%) were called active. This list was built around the results that the source calls inconclusive (neither active nor inactive); the mix of calls is not that of the screen. Calls come from the whole dose curve; as a rule, active = well fitted inhibition curve with a large enough effect; inconclusive = small, poorly fitted or top-dose-only effect; inactive = flat fitted curve, though single readings scatter. Potencies beside an inconclusive call are fits to weak or partial responses and may not hold up.
target: Luciferin 4-monooxygenase (Photinus pyralis) (UniProt P08659); experiment: Firefly luciferase inhibition profiling of diverse chemical library using quantitative high-throughput screening; note: nearly all actives have a fitted effect of over 65% in size; conditions: purified P. pyralis luciferase, luminescence, biochemical; activity change, negative = inhibition: at 115 µM (top of the series) unless noted
Method in brief: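 Purified P. pyralis luciferase (10nM final) in 50mM Tris acetate pH 7.5, 10mM Mg acetate, 0.01% Tween-20, 0.05% BSA with 10uM D-luciferin and 10uM ATP. Compounds titrated qHTS. Luminescence imaged on CCD.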
% is set by controls: 0 for no effect and ±100 for the full control effect; potency is the fitted concentration of half-maximal effect; tags give direction and shape of the fitted curve.

UniProt P08659, sequence (P08659 whole entry, looked up): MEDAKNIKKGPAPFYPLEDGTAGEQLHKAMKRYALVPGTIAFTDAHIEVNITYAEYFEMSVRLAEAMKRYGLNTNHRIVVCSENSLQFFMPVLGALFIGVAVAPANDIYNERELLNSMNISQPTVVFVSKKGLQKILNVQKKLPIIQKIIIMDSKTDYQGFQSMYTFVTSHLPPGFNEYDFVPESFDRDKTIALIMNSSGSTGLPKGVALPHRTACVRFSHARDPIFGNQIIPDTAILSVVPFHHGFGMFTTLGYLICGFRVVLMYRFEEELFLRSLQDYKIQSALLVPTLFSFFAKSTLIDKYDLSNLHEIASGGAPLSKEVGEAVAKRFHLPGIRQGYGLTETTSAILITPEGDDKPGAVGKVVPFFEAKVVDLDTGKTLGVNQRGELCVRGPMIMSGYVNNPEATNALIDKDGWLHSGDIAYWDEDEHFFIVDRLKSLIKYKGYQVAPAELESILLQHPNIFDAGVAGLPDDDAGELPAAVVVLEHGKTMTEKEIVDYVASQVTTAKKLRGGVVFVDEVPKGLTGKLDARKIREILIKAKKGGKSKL

Row | Structure (SMILES) | Potency | activity change, negative = inhibition
1 | COc1ccc(-c2nc3ccncc3[nH]2)cc1 | active: 31.6 µM | 
2 | CCOCCOC1CCN(C(=O)Nc2cccc(C)c2)CC1 | inconclusive: 44.7 µM [inhibitor, partial curve, poor fit] | 
3 | COC1CCOC2(CCN(C(=O)C3(c4ccccc4)CC3)CC2)C1 (stereo not given) |  | inactive: -8.34%
4 | COc1ccc2cc(C3CN(C(=O)c4cc(C(C)=O)n[nH]4)CCO3)ccc2c1 (stereo not given) | inconclusive: 31.6 µM [inhibitor, partial curve] | 
5 | CC1=C[C@@H](CNC(=O)c2ccncc2)[C@H](C(C)C)C[C@H]1CC(=O)N1CCCC1 | inconclusive: 112 µM [inhibitor, single point] | 
6 | CCC(C)NC(=O)N1CCCN(S(=O)(=O)c2ccccc2)CCC(=O)NCC1 (stereo not given) |  | inactive: -0.383%
7 | COc1ccc(NC(=O)c2cc3c(n2C)CCN(Cc2ccc(F)cc2)C3)cc1 | inconclusive: 44.7 µM [inhibitor, partial curve] | 
8 | Cc1ccc(C(=O)N2CCc3nc(-c4ccc(Cl)cc4)nc(-c4ccccc4)c3C2)cc1 | inconclusive: 56.2 µM [inhibitor, partial curve, poor fit] | 
9 | O=C1N(CCCCOc2ccccc2)c2ccccc2NC12CCNCC2 |  | inactive: 0.813%
10 | NCCC[C@@H](N)C(=O)N1CCC2(CCC(=O)N(Cc3ccccc3)C2)CC1 | inconclusive: 44.7 µM [inhibitor, partial curve] | 
11 | Cc1ccc(C2Cn3nnc(C(=O)N4CCC(C(=O)NC(C)c5ccccc5)CC4)c3CO2)cc1 (stereo not given) | inconclusive: 39.8 µM [inhibitor, partial curve, poor fit] | 
12 | O=C(c1cccc(OC(F)(F)F)c1)N1CCN(c2cc(-c3cccs3)[nH]n2)CC1 |  | inactive: 2.5%
13 | CC(C)Oc1ccc(CNC(=O)c2noc(-c3ccc(F)cc3)n2)cc1 | inconclusive: 50.1 µM [inhibitor, partial curve] | 
14 | COc1ccc(-c2cc3nc4c(c(=O)n3[nH]2)CN(C(=O)c2n[nH]c3c2CCCCCC3)CC4)cc1 | inconclusive: 11.2 µM [inhibitor, partial curve] | 
15 | CCOc1ccc2c(n1)CCN(C(=O)Nc1ccc(C)c(C)c1)C2 | active: 28.2 µM | 
16 | C=CCc1ccccc1OCCN(C)Cc1ncnn1CC |  | inactive: -3.44%
17 | O=C(NCc1cccnc1)[C@H]1C[C@@H](O)[C@H](O)[C@@H]2N=C(Nc3ccc(Cl)cc3)S[C@@H]21 | inconclusive: 79.4 µM [inhibitor, partial curve] | 
18 | O[C@@H]1C[C@@H](c2nc(-c3ccc(F)cc3)no2)N(Cc2ncc[nH]2)C1 | inconclusive: 89.1 µM [inhibitor, partial curve] | 
19 | C[C@@H]1C(=O)O[C@H]2[C@H]1CC[C@@]1(C)Cc3sc(NC(=O)COCC(=O)O)nc3[C@@H](C)[C@H]21 | active: 12.6 µM | 
20 | CC(C)C(=O)N1CCOC[C@H](Oc2ccc(C(F)(F)F)cn2)C1 |  | inactive: 0.377% [at 172 µM]
21 | COc1ccc(NC2CCCN(C(=O)c3ccc(S(N)(=O)=O)cc3)C2)cc1 (stereo not given) |  | inactive: -1.18%
22 | CC(NC(=O)c1ccc(-c2ccccc2Cl)o1)c1ncnn1C (stereo not given) | inconclusive: 44.7 µM [inhibitor, partial curve, poor fit] | 

Row | Structure (SMILES) | Potency | activity change, negative = inhibition
23 | O=C(NCc1cccc(Cl)c1)c1noc(-c2ccc3c(c2)OCO3)n1 | inconclusive: 17.8 µM [inhibitor, full curve] | 
24 | COc1ccc(N(C)C(=O)c2c(C)oc3c2CN(Cc2ccc(F)cc2)CC3)cc1 | inconclusive: 44.7 µM [inhibitor, partial curve, poor fit] | 
25 | O=C(C[C@@H]1O[C@H](CNC(=O)Nc2ccccc2)[C@@H](O)[C@H]1O)NC1CC1 | inconclusive: 79.4 µM [inhibitor, partial curve] | 
26 | CCN(Cc1ccccn1)C(=O)c1csc2nc(-c3cc(C)ccc3C)cn12 | inconclusive: 56.2 µM [inhibitor, partial curve] | 
27 | COc1ccc(C2NC(=O)N(CC(=O)N3CCCCCC3)C3=C2C(=O)OC3)cc1 (stereo not given) |  | inactive: -6.24%
28 | O=C(NC1CC1)C1CCN(C(=O)c2ncn3c2COC(c2ccc(F)cc2)C3)CC1 (stereo not given) | active: 35.5 µM | 
29 | O=C(NCCc1ccccc1)N1CC(Oc2ccccc2-c2nc(-c3ccccc3)no2)C1 | inconclusive: 28.2 µM [inhibitor, partial curve] | 
30 | COc1ccc(Cl)cc1-c1ncc2c(n1)OCCN(c1ccccc1)C2=O | inconclusive: 100 µM [inhibitor, partial curve, poor fit] | 
31 | CCCN(CC1CCOC1)C(=O)Nc1cccc(F)c1C (stereo not given) | inconclusive: 39.8 µM [inhibitor, partial curve, poor fit] | 
32 | O=C(Nc1nn(Cc2ccccc2)c2cccc(N3CCOCC3)c12)c1cnccn1 | inconclusive: 25.1 µM [inhibitor, partial curve] | 
33 | Fc1ccccc1-c1nnc([C@H]2CCN(Cc3ccco3)C2)o1 | inconclusive: 50.1 µM [inhibitor, partial curve] | 
34 | Cc1nc(C)c(C(=O)N2CC[C@H](CO)[C@H](NC(=O)C3CC3)C2)s1 | inconclusive: 44.7 µM [inhibitor, partial curve] | 
35 | O=C(O)Cn1ccc2cc(OCCc3cccc(-c4ccc(F)cc4F)c3)cnc21 | inconclusive: 70.8 µM [inhibitor, partial curve] | 
36 | Cc1ccc(-c2cc3c(=O)n(CCNC(=O)c4cccnc4)ccn3n2)c(C)c1 | active: 8.91 µM | 
37 | CN(C)CCCOCC1(C)COc2ccc(C(=O)Nc3ccccc3)cc2N1 (stereo not given) | inconclusive: 79.4 µM [inhibitor, partial curve] | 
38 | Cn1cc(-c2cn(C)c(=O)n3cc(COc4ccc(Cl)cc4)nc23)cn1 | inconclusive: 28.2 µM [inhibitor, full curve] | 
39 | O=C(Nc1cccc(C(F)(F)F)c1)N[C@H]1[C@H](O)[C@@H](N2CCCCC2)[C@@H]2OC[C@H]1O2 | inconclusive: 126 µM [inhibitor, partial curve, poor fit] | 
40 | COc1ccc(CNC(=O)c2noc(-c3ccc(F)cc3)n2)cc1 | inconclusive: 44.7 µM [inhibitor, partial curve] | 
41 | CN1CC2(CCN(c3nc(-c4ccccc4)no3)CC2)CC(c2ccccc2)C1=O (stereo not given) | inconclusive: 79.4 µM [inhibitor, single point] | 
42 | Cc1cc(=O)n(CC(=O)Nc2ccc(F)cc2)c(N(C)Cc2ccccc2)n1 |  | inactive: 4.06%
43 | COc1cccc(-c2cc(C(=O)NCCNc3nc(C)cc(=O)[nH]3)[nH]n2)c1 | inconclusive: 44.7 µM [inhibitor, partial curve] | 
44 | CN(Cc1ccno1)Cc1cn(C)nc1-c1ccc(C2CCCCC2)cc1 | inconclusive: 50.1 µM [inhibitor, partial curve] | 

Row | Structure (SMILES) | Potency | activity change, negative = inhibition
45 | COc1cc(OC)cc(C(=O)NCC2CCCN(Cc3cccc(C)n3)C2)c1 (stereo not given) |  | inactive: 2.73%
46 | C=CCN(C)C(=O)[C@@H](C)C1CC[C@@]2(C)Cc3sc(NCCCC)nc3[C@@H](C)[C@@H]2[C@H]1O (stereo not given in full) | inconclusive: 70.8 µM [inhibitor, full curve, poor fit] | 
47 | O=C(c1cc(-c2ccc(F)cc2)n[nH]1)N1CCC(OCC2CC2)C1 (stereo not given) | inconclusive: 56.2 µM [inhibitor, partial curve] | 
48 | Cc1ccccc1CN1CC[C@H](c2nc3ccc(F)cc3[nH]2)C1 | active: 14.1 µM | 
49 | Cc1ccc(-c2nc(C(=O)N(C)Cc3ccccc3)no2)cc1 | active: 10 µM | 
50 | COc1cccc(-c2cc3c(=O)n(CCNC(=O)c4nn(C)c5ccccc45)ccn3n2)c1 | inconclusive: 3.16 µM [inhibitor, full curve] | 
51 | COc1ccc(-c2cc(N3CCCC(NC(=O)c4ccc(C)nc4)C3)n[nH]2)cc1 (stereo not given) | active: 35.5 µM | 
52 | Cc1ccc(C2Cn3cnc(C(=O)N4CCC(C(=O)NCCCc5ccccc5)CC4)c3CO2)cc1 (stereo not given) | active: 31.6 µM | 
53 | CC(C)c1ccc(CN2CC(CNC(=O)c3cnn(C)c3)C3(C2)CN(c2ccccc2)C3)cc1 (stereo not given) |  | inactive: -5.7%
54 | COc1ccc(-c2ccnc3nc(-c4cccs4)nn23)cc1 | inconclusive: 44.7 µM [inhibitor, partial curve] | 
55 | CCCS(=O)(=O)N1CCC(Oc2ccc(-c3noc(-c4ccccc4)n3)cc2)C1 (stereo not given) | inconclusive: 12.6 µM [inhibitor, full curve] | 
56 | COc1cc(NC(=O)c2cc3c(N4CCCC4)nc(C)cn3n2)cc(OC)c1OC |  | inactive: -3.81%
57 | CN(Cc1ccc(-c2ccccc2)cc1)C(=O)c1ccccc1 | inconclusive: 100 µM [inhibitor, partial curve, poor fit] | 
58 | CCn1ccc(C(=O)NC2CCCN(c3cc(-c4ccc(Cl)cc4)[nH]n3)C2)n1 (stereo not given) | active: 35.5 µM | 
59 | COc1ccc(C(=O)Nc2ncc(-c3ccc(OC)nc3)c3c2OCC3)cc1 | inconclusive: 79.4 µM [inhibitor, partial curve] | 
60 | C[C@]1(O)CCN(C(=O)c2cccc(Oc3ccccc3)c2)C[C@@H]1O |  | inactive: 9.41%
61 | COc1ccc(NC(=O)NC[C@@H]2C=C(C)[C@H](CC(=O)NCCN(C)C)C[C@H]2C(C)C)cc1 | inconclusive: 50.1 µM [inhibitor, partial curve] | 
62 | Cc1nn(-c2ccccc2[N+](=O)[O-])c(C)c1[C@@H]1C=C[C@@H](NCc2ccc(F)cc2)C1 | inconclusive: 112 µM [inhibitor, partial curve, poor fit] | 
63 | NC(=O)c1cccc(-c2ncc3c(n2)OCCN(c2ccccc2)C3=O)c1 | active: 44.7 µM | 
64 | CC(C)c1ccc(C(=O)NCc2ccnc3[nH]ccc23)cc1 | active: 25.1 µM | 
65 | COc1ccc(-c2cc3nc4c(c(=O)n3[nH]2)CN(C(=O)c2cc(CN3CCOCC3)on2)CC4)cc1 | inconclusive: 31.6 µM [inhibitor, partial curve] | 
